PMC4336329 (PLoS ONE, 2015)
Out of some 310,000 compounds screened, about 14,000 (4.5%) showed an effect of 50% or more. Effects have a minus sign here. Some of the results follow.

biological target: human ether-à-go-go-related gene (hERG) potassium channel (human, UniProt Q12809); assay: primary screen, population patch clamp on CHO cells stably expressing hERG
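Also: peak tail current of the secondary pulse compared with the same well before compound.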

Chain of human ether-à-go-go-related gene (hERG) potassium channel (Q12809 whole entry, looked up): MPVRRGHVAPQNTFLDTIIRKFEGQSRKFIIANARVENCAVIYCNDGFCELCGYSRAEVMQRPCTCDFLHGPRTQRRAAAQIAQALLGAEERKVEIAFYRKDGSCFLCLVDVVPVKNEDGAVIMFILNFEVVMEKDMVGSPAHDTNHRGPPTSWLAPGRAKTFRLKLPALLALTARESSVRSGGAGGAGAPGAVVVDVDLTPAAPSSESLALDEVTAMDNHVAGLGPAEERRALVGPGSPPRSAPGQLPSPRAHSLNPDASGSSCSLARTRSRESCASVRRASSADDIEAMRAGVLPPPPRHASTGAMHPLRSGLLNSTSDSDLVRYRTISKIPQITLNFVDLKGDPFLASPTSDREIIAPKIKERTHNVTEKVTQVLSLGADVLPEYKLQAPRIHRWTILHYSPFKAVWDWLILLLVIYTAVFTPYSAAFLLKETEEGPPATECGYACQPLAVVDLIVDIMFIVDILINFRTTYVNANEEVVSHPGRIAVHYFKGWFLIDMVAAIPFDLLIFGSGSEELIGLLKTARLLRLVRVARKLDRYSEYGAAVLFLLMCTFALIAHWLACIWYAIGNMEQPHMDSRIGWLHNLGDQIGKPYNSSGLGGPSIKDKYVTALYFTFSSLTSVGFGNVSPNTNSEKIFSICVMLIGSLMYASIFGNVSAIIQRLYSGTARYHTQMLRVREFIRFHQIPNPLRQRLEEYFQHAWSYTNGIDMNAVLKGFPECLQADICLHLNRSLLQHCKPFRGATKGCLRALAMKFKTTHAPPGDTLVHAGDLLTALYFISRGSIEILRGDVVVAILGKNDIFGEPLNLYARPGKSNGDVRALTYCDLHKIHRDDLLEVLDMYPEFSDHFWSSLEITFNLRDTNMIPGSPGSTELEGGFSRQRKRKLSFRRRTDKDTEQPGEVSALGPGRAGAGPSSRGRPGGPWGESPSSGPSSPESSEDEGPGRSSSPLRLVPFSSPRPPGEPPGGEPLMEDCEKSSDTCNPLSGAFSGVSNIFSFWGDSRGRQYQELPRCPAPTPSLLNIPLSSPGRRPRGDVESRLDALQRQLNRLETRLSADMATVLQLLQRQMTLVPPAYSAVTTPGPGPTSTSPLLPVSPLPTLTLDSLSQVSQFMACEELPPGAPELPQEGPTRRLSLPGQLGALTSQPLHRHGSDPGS

Row | Compound | hERG current change (%, negative = inhibition) at 10uM [%]
1 | Cc1cc(NC(=O)C2CC2)ncc1NC(=O)C12CC3CC(CC(C3)C1)C2 | -9.69
2 | CC(C)C[C@H](NC(=O)NCc1ccccc1Cl)C(=O)O | -1.49
3 | CC(/C=C/c1cccs1)=C\C(=O)O | 25.3
4 | CC1=NN(C(C#N)c2cccc([N+](=O)[O-])c2)C(C)(C)C1 (centres unmarked) | -11.2
5 | CCC(=O)N1c2ccc(S(=O)(=O)N3CCCC3)cc2CC1C (centres unmarked) | 17.4
6 | CCOC(=O)CSc1nnc(-c2ccccc2NC(=O)c2ccccc2)o1 | 12.2
7 | COc1cc(/C=N/S(=O)(=O)c2ccccc2)cc(OC)c1O | 5.7
8 | COc1ccc(CCNC(=O)c2ccnc(C(C)(C)C)c2)cc1OC | -8.22
9 | CN1CCN(c2ccccc2NC(=O)c2sc3ccccc3c2Cl)CC1 | 12
10 | O=C(Oc1cc(=O)oc2ccccc12)c1cccnc1Cl | 22.1
11 | CC1=NN(c2ccc([N+](=O)[O-])cc2)C(c2ccccc2)C1 (centres unmarked) | 4.35
12 | CCc1ccc(/C=C\C(=O)N2CCc3ccccc3C2)cc1 | 14.6
13 | O=C(c1cc(-c2ccccc2)nc2ccccc12)N1CCC2(CC1)OCCO2 | 3.96
14 | CCCCN(C)C(=O)C1CCN(Cc2cccnc2)CC1 | 9.71
15 | O=C1CCN(c2ncccc2[N+](=O)[O-])CC1 | 0.312
16 | Cc1ccc2c(c1)N(CC(=O)NC1CCCCC1C)C(=O)CO2 (centres unmarked) | -0.706
17 | N#Cc1ccc(N2CCc3ccccc3C2)c([N+](=O)[O-])c1 | -5.95
18 | COc1cccc(-c2nc(CS(=O)(=O)CC(=O)Nc3ccccc3Br)c(C)o2)c1 | 7.31
19 | NC(=O)Cn1cnc(-c2ccccc2)c1 | 9.58
20 | CN(CCNC(=O)C1(O)c2ccccc2NC(=O)N1c1ccccc1)Cc1ccccc1 (centres unmarked) | -9.92
21 | Cc1ccc2c(c1)C(=O)CC1(CCCCCC1)O2 | 17.6
22 | CCC(=O)N(Cc1cc(=O)[nH]c2ccccc12)c1ccc(C)cc1C | -15.1

Row | Compound | hERG current change (%, negative = inhibition) at 10uM [%]
23 | Cc1cc(NC(=O)Cn2nc(C(F)(F)F)c3c2CCC3)n(-c2ccccc2)n1 | -17.3
24 | CCCSc1nc2c(c(=O)[nH]c(=O)n2C)n1CCc1ccccc1 | -8.5
25 | CCCCOc1ccc(C2C(C(=O)c3ccc(C)o3)=C(O)C(=O)N2CC2CCCO2)cc1 (centres unmarked) | 9.79
26 | Cc1cccc(NC(=S)NCc2ccccc2Cl)c1C | 8.23
27 | COc1ccccc1Nc1ncnc2c1c(C)c(C)n2CCCN(C)C | -16.4
28 | CCN(CC)CCNC(=O)Cn1cnc2sc(C)c(S(=O)(=O)N3CCC(C)CC3)c2c1=O | 8.72
29 | O=C1CC2(CCN(C(=O)c3ccccc3Br)CC2)Oc2ccccc21 | -76.9
30 | CCc1c(C)nc2nc(SCc3ccccc3Cl)[nH]n2c1=O | 19.5
31 | CC(=O)C1=C(O)C(=O)N(c2ccc(S(=O)(=O)Nc3nccs3)cc2)C1c1ccc(F)cc1 (centres unmarked) | 22.8
32 | Cc1cc(C)cc(-n2ncc3c2CCCC3NC(=O)CN2CCCCC2=O)c1 (centres unmarked) | 16.6
33 | S=C(Nc1ccc(Cl)cc1)c1nc2ccccc2s1 | 7.77
34 | O=C(NCc1ccc2c(c1)OCO2)c1ccc(NS(=O)(=O)c2ccc3c(c2)OCCO3)cc1 | 9.57
35 | O=C(CCC(=O)Nc1ccc(F)cc1)N/N=C/c1ccncc1 | 8.6
36 | COC(=O)c1nc2n(n1)C(c1ccc([N+](=O)[O-])cc1)C(C(=O)Nc1ccc(Cl)cc1)=C(C)N2 (centres unmarked) | 13.5
37 | COC(=O)c1ccc(CSc2nc(-c3ccco3)cc(C(F)(F)F)n2)o1 | -19.1
38 | COc1ccc(N2CCN(C(=O)NCc3cccc(OC)c3)CC2)cc1 | 4.4
39 | CC1CCCN(C(=O)c2cc3c(=O)n4ccccc4nc3s2)C1 (centres unmarked) | 2.91
40 | O=C1C(=O)c2ccccc2C(O)=C1C1CCC(c2ccc(Cl)cc2)CC1 (centres unmarked) | 14.9
41 | CCn1c(=O)cc(OCC(=O)O)c2ccccc21 | 10.6
42 | C[C@@H](C(=O)O)[C@@H]1C[C@@]1(C)[C@@H](NC(=O)OCc1ccccc1)c1ccccc1 | 16.8
43 | Cc1ccc(C2/C(=C(/O)c3cnn(-c4ccccc4)c3C)C(=O)C(=O)N2CCCN2CCOCC2)o1 (centres unmarked) | 1.43
44 | CC(C)=CCC/C(C)=C/CC/C(C)=N/O | -14.7

Row | Compound | hERG current change (%, negative = inhibition) at 10uM [%]
45 | COc1ccc(Cc2nnc(NC(=O)CS(=O)(=O)Cc3ccccc3)s2)cc1 | 19.9
46 | CC(=O)N1CCc2cc(S(=O)(=O)NCCC(=O)Nc3cc(C)cc(C)c3)ccc21 | 2.19
47 | COc1ccc(C(=O)Nc2ccc(N3CCN(Cc4ccccc4)CC3)cc2)cc1 | -4.78
48 | COc1cccc(C(=O)Nc2nnc(S(=O)(=O)N(C)Cc3ccc(F)cc3)s2)c1 | 12.1
49 | Cc1cc(C)cc(C(=O)NCC(=O)OCC(=O)N2c3ccccc3NC(=O)C2(C)C)c1 | -4.08
50 | Cc1ccccc1C(=O)O/N=C/c1c(N2CCOCC2)n(C)c2ccccc12 | 1.1
51 | O=C(CO/N=C/c1ccc(Cl)cc1Cl)NNC(=O)c1ccc(Cl)cc1Cl | 3.17
52 | Br.Nc1nc(-c2ccc(Br)cc2)cs1 | -6.48
53 | COc1ccccc1N1CCN(C2CCN(C(=O)c3ccc(F)cc3)CC2)CC1 | -61
54 | C#CCNC(=O)C1=C[C@H](C)[C@@H](CCCO)[C@H](OCC)O1 | 11.7
55 | Cc1cc(Br)c2c(c1)/C(=C/C(=O)c1cccs1)C(=O)N2 | 17
56 | CCOc1ccc(N(CC)S(=O)(=O)c2cccc3nsnc23)cc1 | -1.57
57 | CCCCN=C1CC(C)(C)CC(=O)/C1=C(/O)CCCN1C(=O)c2ccccc2C1=O | -61.4
58 | Cc1ccc(Nc2cc(C)nc(-c3ccccc3O)n2)cc1 | 4.55
59 | CC(C)(C)NS(=O)(=O)c1ccc(NS(C)(=O)=O)cc1 | -10.8
60 | CCCOc1cccc(NC(=O)c2cc(C)oc2C)c1 | -2.06
61 | COC(=O)[C@H]1[C@H]2C[C@H]3c4[nH]c5ccccc5c4CCN3C[C@H]2CC[C@@H]1O.Cl | 0.968
62 | CC(=O)Nc1cc(C)nn1-c1nc2ccccc2s1 | 15.6
63 | CC(=O)c1c(O)cc(C)n(Nc2nc(C)cc(C)n2)c1=O | 1.83
64 | CC(C)(C)C(=O)N1CCN(S(=O)(=O)c2ccc3c(c2)OCCCO3)CC1 | -8.72
65 | COC(=O)c1ccc(NC(=O)C(C)N2C(=O)c3ccccc3C2=O)cc1 (centres unmarked) | 6.09
66 | CCn1c(=O)n(CC)c2cc(N3CCCC3)c(NC(=O)c3cccc(C)c3)cc21 | -5.12

Row | Compound | hERG current change (%, negative = inhibition) at 10uM [%]
67 | Cc1nc(=O)c(-c2ccccc2)c(C)n1-c1ccc(Br)cc1 | -0.653
68 | Cc1cc(C)cc(NS(=O)(=O)c2ccc(NC(=O)c3ccccc3C(=O)O)cc2)c1 | 9.88
69 | CN(CC(=O)Nc1ccc(Cl)c(Cl)c1)CC(=O)Nc1ccc2c(c1)OCO2 | -3.52
70 | N#Cc1c(-c2ccco2)nc(SCC(=O)Nc2ccc(S(N)(=O)=O)cc2)[nH]c1=O | -2.56
71 | CC(=O)Nc1ccc(N2C(=O)c3ccc(C(=O)Nc4nnc(SCc5ccc(F)cc5)s4)cc3C2=O)cc1 | 13.4
72 | Cc1ccc(/C=C2/C(=O)NC(=O)N(CCc3ccc(F)cc3)C2=O)o1 | 5.03
73 | O=C(CNS(=O)(=O)c1cccc(F)c1)OCC(=O)N1CCCC1=O | 0.385
74 | COc1ccc2c(c1)-c1nc(NC(=O)c3cccs3)sc1CC2 | -5.23
75 | O=C1C=C(c2ccccc2)CC(c2cccs2)C1n1cnc([N+](=O)[O-])c1 (centres unmarked) | -21.9
76 | CCOc1ccc(N2C(=O)CC(NCCc3ccncc3)C2=O)cc1 (centres unmarked) | -5.67
77 | Cc1c(Br)c([N+](=O)[O-])nn1C(C)C(=O)N1CCc2ccccc2C1 (centres unmarked) | -13.4
78 | CCCOc1ccc(OCCOCCN2CCc3ccccc3C2)cc1 | -64.7
79 | COc1ccc(S(=O)(=O)N2CCOCC2)cc1NC(=O)Cn1nnc2ccccc2c1=O | -35.7
80 | CS(=O)(=O)N1CCN(c2ccccc2NC(=O)c2ccco2)CC1 | -38.9
81 | CCO[C@@H]1OC(C(=O)N2CCN(Cc3ccc4c(c3)OCO4)CC2)=C[C@H](C)[C@H]1CCCO | -9.45
82 | CC(=O)Nc1cccc(/C(C)=N\NC(=O)c2ccc(Cn3nc([N+](=O)[O-])c(Cl)c3C)o2)c1 | -9.44
83 | COc1ccc(N=C2SC(C(=O)Nc3ccc4c(c3)OCO4)CC(=O)N2C)cc1 (centres unmarked) | 6.04
84 | Cc1ccc(NC(=O)CSc2cn[nH]n2)cc1 | 20.6
85 | Cc1ccccc1OCCCC(=O)Nc1ccc2c(c1)OCO2 | 5.46
86 | CN(Cc1ccccc1)C(=O)COC(=O)c1cc([N+](=O)[O-])ccc1N1CCOCC1 | -56.7
